Laboratory results: the supplement of paper PMC7826260
This is one part of the list. One pool of 16,384 single-stranded DNAs met each Rep nickase domain in vitro at 3 µM enzyme and 37 °C for 1 h; the strands have 90 letters, of which the middle is given. Numbers give uncut DNA relative to the enzyme-free pool, as log2; strong cutting gives strongly negative numbers. There is no active / inactive call. Shares of all reads are compared; where an enzyme cuts many sequences, the uncut ones exceed 0.

Experiments:
Assay in all cases: uncleaved DNA left, log2 of reads against the no-enzyme library (log2 ratio); higher = less cleavage (more negative = more Rep cleavage of the k-mer); sequences stand for … in CTCGTCCG…ACCGGAGA
[1] = test system: T1, Rep nickase domain of Muscovy duck circovirus
T1 sequence (residues 1-111 of Rep, tag left off): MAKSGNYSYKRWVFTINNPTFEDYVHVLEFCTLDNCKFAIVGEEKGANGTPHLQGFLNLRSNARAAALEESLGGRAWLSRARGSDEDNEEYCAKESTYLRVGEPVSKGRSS
Protocol: (§1)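 A pool of 90-nt single-stranded DNAs with seven random bases just before the constant AC of the nick site (name = the seven bases) was cut by 3 µM recombinant His6-SUMO-tagged Rep nickase domain (300 nM DNA, 50 mM HEPES pH 8.0, 50 mM NaCl, 1 mM MnCl2, 1 h, 37 °C, three replicates). Uncut DNA was amplified and sequenced.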

[2] = test system: T2, Rep nickase domain of banana bunchy top virus
T2 sequence (residues 1-94 of Rep, tag left off): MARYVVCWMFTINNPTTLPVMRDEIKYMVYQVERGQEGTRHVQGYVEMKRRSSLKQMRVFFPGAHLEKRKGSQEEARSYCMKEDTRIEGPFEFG
Protocol: as §1

[3] = test system: T3, Rep nickase domain of cabbage leaf curl virus
T3 sequence (residues 1-116 of Rep, tag left off): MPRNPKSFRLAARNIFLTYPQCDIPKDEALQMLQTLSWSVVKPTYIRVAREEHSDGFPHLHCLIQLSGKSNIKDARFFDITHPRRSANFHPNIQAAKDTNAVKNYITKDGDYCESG
Protocol: as §1

[4] = test system: T4, Rep nickase domain of chickpea chlorotic dwarf virus
T4 sequence (residues 1-124 of Rep, tag left off): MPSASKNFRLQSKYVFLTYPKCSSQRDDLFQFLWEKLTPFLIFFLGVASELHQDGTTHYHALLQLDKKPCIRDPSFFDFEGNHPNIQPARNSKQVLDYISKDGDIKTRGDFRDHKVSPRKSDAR
Protocol: as §1

[5] = test system: T5, Rep nickase domain of faba bean necrotic yellows virus
T5 sequence (residues 1-98 of Rep, tag left off): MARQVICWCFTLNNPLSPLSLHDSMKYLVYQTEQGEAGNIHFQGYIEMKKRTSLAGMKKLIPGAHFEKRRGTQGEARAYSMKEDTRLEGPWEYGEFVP
Protocol: as §1

[6] = test system: T6, Rep nickase domain of maize striate mosaic virus
T6 sequence (residues 1-117 of Rep, tag left off): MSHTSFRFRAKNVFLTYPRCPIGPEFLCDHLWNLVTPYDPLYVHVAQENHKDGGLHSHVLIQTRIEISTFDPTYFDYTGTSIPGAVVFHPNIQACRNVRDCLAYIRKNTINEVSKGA
Protocol: as §1

[7] = test system: T7, Rep nickase domain of porcine circovirus 2
T7 sequence (residues 2-116 of Rep, tag left off): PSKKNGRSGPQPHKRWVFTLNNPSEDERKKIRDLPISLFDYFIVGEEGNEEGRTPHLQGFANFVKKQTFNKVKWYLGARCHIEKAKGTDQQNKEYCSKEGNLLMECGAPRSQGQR
Protocol: as §1

[8] = test system: T8, Rep nickase domain of tomato golden mosaic virus
T8 sequence (residues 1-124 of Rep, tag left off): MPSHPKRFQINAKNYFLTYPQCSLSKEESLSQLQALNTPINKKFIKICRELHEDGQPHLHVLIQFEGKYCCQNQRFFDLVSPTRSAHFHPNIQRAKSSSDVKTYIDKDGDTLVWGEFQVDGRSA
Protocol: as §1

[9] = test system: T9, Rep nickase domain of tomato yellow leaf curl virus
T9 sequence (residues 1-136 of Rep, tag left off): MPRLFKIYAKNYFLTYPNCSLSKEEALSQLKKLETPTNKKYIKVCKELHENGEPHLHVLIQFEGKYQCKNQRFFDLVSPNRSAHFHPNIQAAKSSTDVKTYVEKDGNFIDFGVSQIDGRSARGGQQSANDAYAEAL
Protocol: as §1

[10] = test system: T10, Rep nickase domain of wheat dwarf virus
T10 sequence (residues 1-137 of Rep, tag left off): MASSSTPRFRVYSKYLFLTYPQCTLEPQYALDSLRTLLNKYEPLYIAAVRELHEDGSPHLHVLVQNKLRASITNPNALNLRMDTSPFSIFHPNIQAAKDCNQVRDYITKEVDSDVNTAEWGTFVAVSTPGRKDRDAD
Protocol: as §1

Sequence	uncleaved DNA left (log2) [1]	uncleaved DNA left (log2) [2]	uncleaved DNA left (log2) [3]	uncleaved DNA left (log2) [4]	uncleaved DNA left (log2) [5]	uncleaved DNA left (log2) [6]	uncleaved DNA left (log2) [7]	uncleaved DNA left (log2) [8]	uncleaved DNA left (log2) [9]	uncleaved DNA left (log2) [10]
ACGAAAG	0.0296	-0.0165	-0.646	-0.37	-0.0151	-1.06	0.255	0.107	0.04	0.017
ATTACCA	-0.047	0.102	-0.0783	-2.38	-0.0226	-0.309	-0.811	0.00871	0.0745	0.0971
AGCTGGA	0.147	0.134	0.393	1.47	0.158	1.46	0.153	0.198	0.0764	0.189
CCCTCGC	-0.0443	-0.0379	-0.367	-0.749	-0.0725	-0.936	0.0178	0.0223	-0.138	-0.168
AGACGGT	-0.0756	-0.0745	0.256	0.511	-0.00749	1.35	-0.0166	0.00499	-0.142	0.0303
GGCACCG	0.0695	0.0207	0.0311	0.0781	0.0584	-0.0524	0.136	0.0643	0.118	0.0403
GTTTTGC	0.0758	-0.00428	-0.226	0.032	0.0932	-0.491	0.047	-0.0306	0.0233	0.033
GCTAATA	0.0941	0.0825	0.0476	-0.0794	-0.0315	0.168	-0.00162	0.0822	0.0771	0.152
TCTGTGA	0.0607	-0.124	-0.329	-0.692	-0.014	-1.08	-0.038	-0.102	-0.106	-0.187
GAAATAC	-0.00142	-0.0965	0.149	0.266	-0.0177	0.468	-0.0115	-0.0314	-0.0224	-0.0469
TATATAC	0.071	0.0551	0.134	-0.565	0.0125	-0.374	-0.00321	0.148	-0.0212	0.0161
CCAGTCG	-0.142	-0.0245	-0.797	-0.136	-0.0374	-1.03	-0.0345	-0.27	0.00833	-0.0777
ACCTCCG	-0.0357	-0.0641	-0.799	0.155	-0.0899	-0.773	0.0663	-0.138	-0.0405	-0.0967
CCAAGGC	-0.112	-0.0698	-0.186	0.00634	-0.0645	-0.872	-0.0341	-0.0718	-0.0714	-0.191
CACAGCG	-0.11	-0.0388	-0.791	0.215	0.0468	-0.698	0.0367	-0.101	0.00609	-0.115
GCAGACC	0.00327	0.146	0.0654	0.61	0.056	0.585	0.0523	0.106	-0.0738	0.0377
CAAGATA	-0.123	-0.162	-0.233	-1.77	0.133	-0.112	0.00952	-0.0867	-0.153	-0.132
AGATATG	0.0869	-0.014	-0.166	0.0627	0.0579	-0.251	0.04	-0.0537	-0.106	0.0813
CAGGGCC	0.0601	0.0374	0.0559	0.165	0.0323	-0.211	0.0224	-0.0638	0.061	0.0612
GATTCAG	-0.00641	-0.0277	-0.371	-0.455	-0.0264	-1.01	0.0789	-0.0851	0.0469	-0.0681
GGACCTG	0.0693	0.0555	0.3	1.09	-0.0364	1.75	0.0857	0.0128	0.0694	0.103
CAATTCT	-3.9	-0.605	-4.36	-3.6	-0.103	-3.59	-3.92	-4.12	-0.452	-3.95
CATGAGC	0.0618	0.051	-0.618	-0.614	-0.0189	-1.11	0.145	0.00629	0.0643	-0.0858
GTCTATG	0.105	0.0627	0.289	0.9	0.032	1.75	0.187	0.145	0.0726	0.0917
CTCTAGT	-2.03	-0.0846	-0.412	-1.04	-0.116	-1.09	-3.5	-0.231	-0.0874	-0.13
CATACCG	0.0445	0.0533	-0.737	-0.558	0.00944	-0.934	0.0578	-0.0427	0.0147	-0.128
GCGGATT	-0.102	-0.0332	0.606	1.3	-0.0801	1.89	-0.0312	-0.126	-0.0453	0.0731
CCTACAC	0.0748	-0.153	-0.281	-2.04	0.0343	-0.816	-0.0995	-0.14	-0.171	-0.209
CACTGTG	0.0409	-0.0709	-0.777	-0.0197	0.11	-0.875	0.12	-0.0973	0.12	-0.157
GCGTATC	0.0385	0.0989	0.229	0.431	-0.0827	0.268	-0.00317	-0.0844	0.00383	0.0199
